Holding throughout (test): far-Western; lysates of HEK293T transfected with His-tagged MMRN2 constructs separated by SDS-PAGE under reducing conditions; probed 1 h with CLEC14A-ECD-Fc (2 μg/ml); only the binder purified
The target in experiment [1] is T1, MMRN2^530-624 (human) (UniProt Q9H8L6).
T1 sequence: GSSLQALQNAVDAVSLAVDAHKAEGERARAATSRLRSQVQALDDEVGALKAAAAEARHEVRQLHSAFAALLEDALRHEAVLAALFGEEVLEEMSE

Protein sequences, listed by entry. Tags and fused reporters are not part of them. Residues count along the entry.
UniProt Q86T13, residues 22-397: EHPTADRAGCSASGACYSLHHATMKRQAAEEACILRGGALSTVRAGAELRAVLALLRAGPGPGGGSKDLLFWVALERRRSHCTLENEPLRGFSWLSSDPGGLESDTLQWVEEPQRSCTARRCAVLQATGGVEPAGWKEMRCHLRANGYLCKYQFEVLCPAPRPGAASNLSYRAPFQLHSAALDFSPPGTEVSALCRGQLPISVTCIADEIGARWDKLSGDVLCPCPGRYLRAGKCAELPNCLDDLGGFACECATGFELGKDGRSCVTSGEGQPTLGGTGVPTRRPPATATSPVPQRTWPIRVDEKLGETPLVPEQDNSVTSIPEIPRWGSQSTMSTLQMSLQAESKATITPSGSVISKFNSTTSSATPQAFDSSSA

The target in experiment [2] is T2, MMRN2 coiled-coil and C1q construct (MMRN2^CC-C1q) (human) (UniProt Q9H8L6).
T2 sequence: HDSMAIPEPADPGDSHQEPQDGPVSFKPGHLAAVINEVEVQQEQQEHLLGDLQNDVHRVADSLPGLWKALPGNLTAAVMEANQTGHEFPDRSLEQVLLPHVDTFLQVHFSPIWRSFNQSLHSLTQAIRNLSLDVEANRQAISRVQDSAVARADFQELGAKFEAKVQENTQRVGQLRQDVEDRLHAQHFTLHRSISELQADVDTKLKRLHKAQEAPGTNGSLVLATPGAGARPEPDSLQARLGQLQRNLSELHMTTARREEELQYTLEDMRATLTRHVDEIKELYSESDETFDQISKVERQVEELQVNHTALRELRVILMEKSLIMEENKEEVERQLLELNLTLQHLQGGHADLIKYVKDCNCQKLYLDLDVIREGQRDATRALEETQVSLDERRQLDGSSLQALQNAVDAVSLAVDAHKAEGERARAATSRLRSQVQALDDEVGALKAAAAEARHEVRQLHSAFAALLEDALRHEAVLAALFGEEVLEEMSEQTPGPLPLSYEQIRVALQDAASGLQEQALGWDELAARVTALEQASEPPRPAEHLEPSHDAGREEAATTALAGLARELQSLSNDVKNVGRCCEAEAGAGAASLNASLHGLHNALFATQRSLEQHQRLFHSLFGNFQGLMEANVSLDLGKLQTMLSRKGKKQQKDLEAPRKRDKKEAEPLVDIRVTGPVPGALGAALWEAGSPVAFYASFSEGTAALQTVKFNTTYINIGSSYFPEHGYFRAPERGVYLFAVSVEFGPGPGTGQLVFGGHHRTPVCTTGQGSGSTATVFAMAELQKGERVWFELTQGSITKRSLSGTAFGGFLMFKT

The target of experiment [3] is T3, MMRN2^133-486 (human) (UniProt Q9H8L6).
T3 sequence: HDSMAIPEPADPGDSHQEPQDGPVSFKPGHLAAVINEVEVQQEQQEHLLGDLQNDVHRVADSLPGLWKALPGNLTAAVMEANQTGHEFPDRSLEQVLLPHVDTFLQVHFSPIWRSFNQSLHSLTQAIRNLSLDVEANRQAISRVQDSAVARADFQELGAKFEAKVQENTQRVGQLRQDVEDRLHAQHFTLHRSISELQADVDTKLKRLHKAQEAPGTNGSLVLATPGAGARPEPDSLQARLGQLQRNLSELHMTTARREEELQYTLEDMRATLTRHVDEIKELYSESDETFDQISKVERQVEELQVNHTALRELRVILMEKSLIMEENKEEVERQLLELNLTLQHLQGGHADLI

This passage reports binding results from article PMC5671938, “Multimerin-2 is a ligand for group 14 family C-type lectins CLEC14A, CD93 and CD248 spanning the endothelial pericyte interface” (Oncogene, 2017).

Results are given in words; binding and its absence hold for the method and conditions named. Some results given as binding are weak or reduced against the parent protein; the word gives no strength.

As for “recombinant CLEC14A extracellular domain with an Fc tag (CLEC14A-ECD-Fc) (from UniProt Q86T13 22-397) (Fc fusion)”, the figures for the binding entry in experiment [1], in experiment [2] and in experiment [3] were “binds”, “binds” and “no binding (tested: 2 μg/ml)”, respectively.
